# Experimental data: publication PMC7819943, “Rice protein-binding microarrays: a tool to detect cis-acting elements near promoter regions in rice”
# The other results are listed elsewhere or left out.
# Target: T1, OsWOX13 (Oryza sativa, UniProt Q5QMM3 1-267)
# T1 sequence: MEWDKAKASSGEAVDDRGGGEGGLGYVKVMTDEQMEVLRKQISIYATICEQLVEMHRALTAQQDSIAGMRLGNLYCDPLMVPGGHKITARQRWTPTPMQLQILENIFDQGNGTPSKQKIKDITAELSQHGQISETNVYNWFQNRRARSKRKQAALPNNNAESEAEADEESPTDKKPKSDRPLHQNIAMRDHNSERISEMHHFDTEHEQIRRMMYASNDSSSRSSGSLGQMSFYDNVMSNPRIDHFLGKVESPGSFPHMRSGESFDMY
# Assay: protein-binding microarray (RPBM); PBS, 2% BSA, 51.3 ng/ul salmon testes DNA, 50 uM zinc acetate, 200 nM TF, 25 C, 1 h; high values mean tight binding
# Conditions: protein: recombinant; tags: N-terminal polyhistidine and DsRed monomer fusion (pET32a); label: CyDye5-dUTP incorporated in the synthesized complementary strand; 3' TTTTT single-stranded linker to array surface; dsDNA, one strand shown
# Summary of the method: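 The binding signal is fluorescence intensity per feature, in arbitrary units, read on an Axon 4000B scanner. Polyhistidine- and DsRed-tagged transcription factors (N-terminal fusions) from E. coli BL21-CodonPlus were purified on Ni–NTA and applied at 200 nM for 1 h at 25 °C to a double-stranded, BSA-blocked custom Agilent array in buffer with 50 µM zinc acetate.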
row,Sequence,binding signal
1,ACCCCTAATTTAATTCTCAATTAACCAGGTACTGTCCTAACGGAGTCACCTAGTGCAG,34100 fluorescence intensity (a.u.)
2,GGGATTATTTAGATTTGTTATATTAGGAAGGATCACAAGTCGGAGTCACCTAGTGCAG,12000 fluorescence intensity (a.u.)
3,AGCAGATTGACCGATTCACCAGAATTCCTGAATCTCTCAACGGAGTCACCTAGTGCAG,12700 fluorescence intensity (a.u.)
4,TTGACTAACCAGAGGATTGATTCACTCGAGGAGGCGGCGGCGGAGTCACCTAGTGCAG,7860 fluorescence intensity (a.u.)
5,ACAAACCCATAATTTGTGAGGAGACAAGAACAATCAATATCGGAGTCACCTAGTGCAG,3670 fluorescence intensity (a.u.)
6,TATAATTAGGCTGTTCACAATGCTTGTGTAATGCTGATTGCGGAGTCACCTAGTGCAG,19000 fluorescence intensity (a.u.)
7,GGCTACAGATTGGTAGCCAGCTGTAGCACGGACTCCTACACGGAGTCACCTAGTGCAG,4260 fluorescence intensity (a.u.)
8,ACTGATGAAGTTAAGCTAATTAAATCCAGCCCACAAACACCGGAGTCACCTAGTGCAG,12100 fluorescence intensity (a.u.)
9,ACGTGCAATTCACTCATCTTAATTTAAGGTATGTAAACTCCGGAGTCACCTAGTGCAG,3920 fluorescence intensity (a.u.)
10,CCCTATCCAGTTAAATTACGTTTACTTCACGTCAAGCGGTCGGAGTCACCTAGTGCAG,4370 fluorescence intensity (a.u.)
11,AGATTTAATTGCAATGAATACAACGGTGTGATCGGATCGTCGGAGTCACCTAGTGCAG,30900 fluorescence intensity (a.u.)
12,AATATATGTTTAAAATTTTCTATTATATATAATTACAGTACGGAGTCACCTAGTGCAG,3360 fluorescence intensity (a.u.)
13,TAGACAGATTGCGTGTAAATTGTGAGACGAATCTTTTAAGCGGAGTCACCTAGTGCAG,23600 fluorescence intensity (a.u.)
14,AGGTGAGATAATCAAATTGTTAGCTACAACTTACTAAGCCCGGAGTCACCTAGTGCAG,3560 fluorescence intensity (a.u.)
15,GCGTGTGACTATAATTACGTGGCTTTCCTTCCTGAAGCCGCGGAGTCACCTAGTGCAG,6790 fluorescence intensity (a.u.)
16,TTTAATTAAGCAAACACACTTGACATACTTTTAAGTATTGCGGAGTCACCTAGTGCAG,12700 fluorescence intensity (a.u.)
17,ACCAAATTTGATAAGGTTTATTTTGGCTACAATCAGAACACGGAGTCACCTAGTGCAG,8770 fluorescence intensity (a.u.)
18,TTAATTTGAAAACTTAAAATTGGTATGCATATTCTTGTCTCGGAGTCACCTAGTGCAG,9480 fluorescence intensity (a.u.)
19,TCTCAATAAATTACAACAATTTCTCGTCTCAACCTTAGTTCGGAGTCACCTAGTGCAG,7520 fluorescence intensity (a.u.)
20,TTAATTATAAATATTAAACGTAGACTATTAATAAAACTCACGGAGTCACCTAGTGCAG,8680 fluorescence intensity (a.u.)
21,GACCAATCAAACAAACTTCCATAGAGGATCATCCTCCCTTCGGAGTCACCTAGTGCAG,9370 fluorescence intensity (a.u.)
22,AATTAATGTGAGATTTTATAGCCTCCATAATGAATGTGGTCGGAGTCACCTAGTGCAG,4230 fluorescence intensity (a.u.)
23,TATATTTAATTATCGATTTGATGAAACTAATTTAGTATTACGGAGTCACCTAGTGCAG,14500 fluorescence intensity (a.u.)
24,TTCTAATTAGATTTGATAAAGTACTAATATTCATTTTGGTCGGAGTCACCTAGTGCAG,63100 fluorescence intensity (a.u.)
25,TACTTAATTAATTACCACGTTATGTTTTACGGGCGGCTAACGGAGTCACCTAGTGCAG,45600 fluorescence intensity (a.u.)
26,CACTTGACTTAATTATCTCTTGAGGCCACAATATATAGCTCGGAGTCACCTAGTGCAG,27700 fluorescence intensity (a.u.)
27,TTGTGATTGATTTCACACCCAAACAACAAGTAGTCAGCTACGGAGTCACCTAGTGCAG,61300 fluorescence intensity (a.u.)

row,Sequence,binding signal
1,TTGATGATAAGAATTAATTAGGATTTTCAAATAAACAAACCGGAGTCACCTAGTGCAG,20700 fluorescence intensity (a.u.)
2,ATAGTTGATGATTCTATCATAAAACCGGTTTGTGATAGATCGGAGTCACCTAGTGCAG,7250 fluorescence intensity (a.u.)
3,CAAGATTGGGCGAGGGAGGGAGGAGTCCAGATCCTGCCTCCGGAGTCACCTAGTGCAG,3250 fluorescence intensity (a.u.)
4,AGCACATCACCTGATTGCACTGCACTGCTCTTGCTTTCCCCGGAGTCACCTAGTGCAG,6270 fluorescence intensity (a.u.)
5,CATAAGATTATTAGTAATATCTAAATACACCGGCCCAACCCGGAGTCACCTAGTGCAG,3540 fluorescence intensity (a.u.)
6,AGTGATAAATTTGAGTGATTACTATATGACACCGTTGTGTCGGAGTCACCTAGTGCAG,55700 fluorescence intensity (a.u.)
7,ATAATTGTGAATTTCTCGGGTCACTACTGTTCATTGTGCGCGGAGTCACCTAGTGCAG,8120 fluorescence intensity (a.u.)
8,AAATTCCGAATTTGATTCTTAATTAAGGCGAGCTATTCACCGGAGTCACCTAGTGCAG,3490 fluorescence intensity (a.u.)
9,TGACGAATTAACTGACGACCGCGGCTCAATCGATCGATCTCGGAGTCACCTAGTGCAG,3540 fluorescence intensity (a.u.)
10,TCGGATCGGATTAATTTTCACTAGCCTTAATTAGCATAGCCGGAGTCACCTAGTGCAG,8950 fluorescence intensity (a.u.)
11,CTGTGTGGATGAACTCTGATTGGATTCCAGCTACTATTTGCGGAGTCACCTAGTGCAG,12800 fluorescence intensity (a.u.)
12,ATAGCTAGATGGGCTGGATTGACCCGCGTCCGCGTGGCCGCGGAGTCACCTAGTGCAG,5350 fluorescence intensity (a.u.)
13,CTCCAATTTAAAATTTCAACCCAATTTTAAACTTTGCCCACGGAGTCACCTAGTGCAG,9760 fluorescence intensity (a.u.)
14,ACCAAAATTATTAAAATCCGGTGTAATACGCCCTCTCGCACGGAGTCACCTAGTGCAG,5770 fluorescence intensity (a.u.)
15,CGCGTAGATTGAAACTGGACAAGCAGTACATGTACAAAATCGGAGTCACCTAGTGCAG,17900 fluorescence intensity (a.u.)
16,CTTGATGATTAGTAGTAGTACGATTTACGAGTGCTAATGGCGGAGTCACCTAGTGCAG,26700 fluorescence intensity (a.u.)
17,TCACTCACTCACTCATCACGCTTTCGATCATCCGCTTTTCCGGAGTCACCTAGTGCAG,3170 fluorescence intensity (a.u.)
18,TCCATGTTAATTAATTTGATCAGTTGGACGCATATTTGCGCGGAGTCACCTAGTGCAG,35600 fluorescence intensity (a.u.)
19,TGATCCAATTATTTATTTGTAACTACTCAAACGCGTACCTCGGAGTCACCTAGTGCAG,16400 fluorescence intensity (a.u.)
20,ACCAATCCGAAATGATTAGAGACGCCAAAAGGCCCACTTTCGGAGTCACCTAGTGCAG,4980 fluorescence intensity (a.u.)
21,AATAAAATTTACGCTAATGTCGGATTCCTTTTACAAAGTTCGGAGTCACCTAGTGCAG,3570 fluorescence intensity (a.u.)
22,CATCATTTAGTAATTTAGAAAGCGTGCACATAATGAGTTTCGGAGTCACCTAGTGCAG,3240 fluorescence intensity (a.u.)
23,AGTAACGTGAGTAGATTAGTGCTTACACCAATACATCCATCGGAGTCACCTAGTGCAG,3460 fluorescence intensity (a.u.)
24,GTTTAGTGCTCAGACGAAGCAACGTACTAATGCATGACACCGGAGTCACCTAGTGCAG,9550 fluorescence intensity (a.u.)
25,TTGACAAATCAACATCTATCTCATATATGCAGGTAATATTCGGAGTCACCTAGTGCAG,6460 fluorescence intensity (a.u.)
26,CGCTAATTTATTGTGTTCATAATAGAGTACTACTACTAATCGGAGTCACCTAGTGCAG,21700 fluorescence intensity (a.u.)
27,GACATACAGATTAGGTGGTAAATAAATCAAGTCGGGCGTACGGAGTCACCTAGTGCAG,6120 fluorescence intensity (a.u.)
